Some of the results follow.
Each sequence was assayed on PfAP2-HC AP2 domain (GST-tagged) (assay: gcPBM binding intensity (ln(normalized median fluorescence intensity)); higher = stronger DNA binding).
Outline: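 GST-tagged P. falciparum DNA-binding domains, expressed in E. coli (about 25 μg on average), were applied for 1 h to an Agilent 4 × 180k array of primer-extended double-stranded 36-bp intergenic genomic probes plus negative controls. The binding buffer was 1× PBS with 1% milk, 0.2 mg/ml BSA, 0.5% salmon testes DNA and 0.03% Triton X-100. Bound protein was detected with Alexa488 anti-GST antibody and scanned at 488 nm. Binding intensity is the highest Masliner-normalised natural-log median intensity across replicate spots of either probe orientation.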

| Sequence | gcPBM binding intensity (ln) |
| --- | --- |
| GTTAAAATTGGGGACGCATGTTCCTTTCCTTTTTTT [TGCATGCA_site1002] | 9.46 |
| TTATAAATGTAACGATGTACTTTTAAAAGTTTCCTT [XGTACX_site109] | 9.48 |
| ATAATTATTAAGAGAACATGCAAAATATATATGTTT [TGCATGCA_site503] | 9.63 |
| AAAGCACCCAGGCACACACACAAAGGAAAAGAAAAA [CACACA_site232] | 11 |
| ATATATATTTCTTAAAGTACATAATAATAAAAATAT [XGTACX_site8981] | 9.49 |
| AATAGAATAATCCTTACACACACACGCGCACGAATA [CACACA_site6365] | 10.6 |
| ATTTTATTTTTTTGTGATAATTGATTTATATATTGT [TGCATGCA_negctrl_site563] | 9.59 |
| ATTATTTCTTTGTGATGTACAAATAAACATGTTGGT [XGTACX_site5636] | 9.7 |
| TATATATTACATTGTTGTACATATATATTATATATA [XGTACX_site60] | 9.69 |
| ATATATATATATATTTGTACGTATTATGTATTTTTT [XGTACX_site3530] | 10.3 |
| AATACAATAAAATAGTGTACATATATATTATGTATA [XGTACX_site8258] | 9.83 |
| TTAAAATATGATATATGTACATAATTACTAAAAACA [XGTACX_site276] | 9.6 |
| GAATAAATTAAAAACGCATGTATCATTACTACATAA [TGCATGCA_site111] | 9.62 |
| TTTATATTATACTATACATGCATATAATAAAGGTCA [TGCATGCA_site934] | 9.52 |
| GGGTTCAATTTAAAGAGTACAAAAAATGTAGGTCAT [XGTACX_site5290] | 9.61 |
| ATTTATCCAAAAAAATGTACAGGATAATTTGTTCAT [XGTACX_site7737] | 9.52 |
| TATTATGCCTTTAATATACACACTAATATTTTTTTG [CACACA_site2045] | 9.79 |
| TATAAAAATTAATATTGTACGTTTTATGAAAATAAA [XGTACX_site8237] | 9.22 |
| CATAATACCTATAACACACACAATTATACATAAACT [CACACA_site7506] | 10.2 |

| Sequence | gcPBM binding intensity (ln) |
| --- | --- |
| AATATATACATATATTGTACATATAGTTTCTTGCAT [XGTACX_site7871] | 9.74 |
| TTTTTTTTTTTGTGGGTGCGTTTATAAAAACAGGAA | 9.62 |
| AGAGAGAAAGTTATAACATGCAACAATTTTTAGAAC [TGCATGCA_site96] | 9.67 |
| TTTCCATATTGTGGATGTACGTTTTGAGGTTTTTAC [XGTACX_site3362] | 9.76 |
| TTTTAATAAACAAAACGTACACATTATTATTATATA [XGTACX_site335] | 9.53 |
| TTTGTAGTTTGCACATGTACACATTTCAAAATAAAG [XGTACX_site7568] | 9.5 |
| ATTATCCATGCATTTACACACACACTAATAAAAATT [CACACA_site9358] | 10.3 |
| TTTAACATAAATTAAACACACAATAAAATACATTAA [CACACA_site6699] | 9.75 |
| CATAAATACAGATATACACACATATATATATATATA [CACACA_site4528] | 9.75 |
| ATAATACATATAGAAGGTACACTATTATTTTCCTGA [XGTACX_site903] | 9.64 |
| GAGGTACATTAATTAGTGCATTAAAATTTTTATCCT | 9.49 |
| TGTATTATTAATATTTGTACGTAATAATAAAAACAT [XGTACX_site3716] | 9.54 |
| TGGAAACAAAAACACACACACAAAAAAAAAAAAAAA [CACACA_site3209] | 10.1 |
| TCCTTAGAAATATTGATCATAAACTGGAAAGGTATA [XGTACX_negctrl_site354] | 9.28 |
| GAAATATATAAATTGACACACACATATATACATATA [CACACA_site8323] | 10.1 |
| TAATTTCTTATGTATTGTACAAATAATATATTATTT [XGTACX_site3066] | 9.84 |
| ATTCAAAATAATCACAGTACACATGAGATTATCTTT [XGTACX_site2197] | 9.58 |
| ACTTCATAAACATTTTGTACGTATGTATCTTTTTAT [XGTACX_site7012] | 9.95 |
| TTAATATGGAAATGTTGTACATTTCTTGAAGCATTC [XGTACX_site525] | 9.39 |

| Sequence | gcPBM binding intensity (ln) |
| --- | --- |
| TTATTGAAAAACATAATATCTAAGAGGGTAATATAT [GTGCAC_negctrl_site599] | 9.59 |
| TAAAAGGGGATATATGAACACACAAAAAAAAAATAT [CACACA_site8940] | 9.94 |
| TATATATATATGTACACACACACATATAAATAAATA [CACACA_site443] | 10.3 |
| TTAAAAAAAAAAAAAAGTACATAAGTATATATAATA [XGTACX_site4295] | 9.7 |
| CATATTTTTTCTTAAACACACACATATATATATATA [CACACA_site8920] | 9.92 |
| ATATTAAGTTTTATTACACACTCTCAATTTTTATTT [CACACA_site4206] | 9.87 |
| TAAATGTTTCTCAAAAGTACACATGTGATATTTCTT [XGTACX_site2065] | 9.65 |
| TTAAAAATATTATGTACACACATTTTAGATATTTGT [CACACA_site1846] | 9.91 |
| TAAATATATATATATTGTACAAAACAAATGTGAATT [XGTACX_site696] | 9.79 |
| TCCTAATATTTGTCAAATTTCAAAATAAATAAAATG [XGTACX_negctrl_site540] | 9.27 |
| TAATTAAAATCATATACACACCCATATATATATATA [CACACA_site8524] | 10 |
| ATATAGTAAATGTTCACACATACAAATATATATATA [CACACA_site5518] | 9.73 |
| AAGTTTTCTTAAAGCTGTACTTTTTAAAAATAAAAT [XGTACX_site7716] | 9.13 |
| TACAAATATAGATGCACACACATATAGGTATATGTG [CACACA_site7439] | 10.4 |
| TATATATAATTATAAGAACACACATATATATATATA [CACACA_site8786] | 9.8 |
| AATGATACTTAGGGGCATGTCTCTGGGGGCATAACC [CACACA_negctrl_site591] | 9.53 |
| ATATATTTCTGTCAAGCACACATAATATTAATATAT [CACACA_site7993] | 9.97 |
| CATATTATATTTTCATGTACACATAACATATTTATA [XGTACX_site4787] | 9.69 |
| GTTATAAACAAAATAAATATATGAATATATAATAAT [XGTACX_negctrl_site96] | 9.71 |
